# Measurements reported in the supplement of paper PMC8728848.
# This is one part of the list.
# How the values were obtained:
# Assay in all cases: glycan array binding signal (z-score within array); higher = stronger binding
# Conditions in all cases: glycan notation: IUPAC condensed, linker removed
# [1] = target: Neu5Ac(a2-6)Gal(b1-3)GlcNAc(b1-3)[Gal(b1-4)GlcNAc(b1-6)]Gal(b1-4)Glc
# Outline: (§1)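 Glycan array binding is given as a within-array Z-score, which can be read as non-binding when negative. The arrays, 3228 of them, came from the Consortium for Functional Glycomics database and were retained only where the protein sequence was available. Z-scores were averaged across arrays of the same protein sequence at different concentrations or buffers and across linkers.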
# Neu5Ac(a2-6)Gal(b1-4)Glc = target: Neu5Ac(a2-6)Gal(b1-4)Glc
# Outline: as §1
# [2] = target: Neu5Ac(a2-6)Gal(b1-4)GlcNAc
# Outline: as §1
# [3] = target: Neu5Ac(a2-6)Gal(b1-4)GlcNAc(b1-2)Man
# Outline: as §1
# [4] = target: Neu5Ac(a2-6)Gal(b1-4)GlcNAc(b1-2)Man(a1-3)Man(b1-4)GlcNAc(b1-4)GlcNAc
# Outline: as §1
# [5] = target: Neu5Ac(a2-6)Gal(b1-4)GlcNAc(b1-2)Man(a1-3)[Gal(b1-4)GlcNAc(b1-2)Man(a1-6)]Man(b1-4)GlcNAc(b1-4)GlcNAc
# Outline: as §1
# [6] = target: Neu5Ac(a2-6)Gal(b1-4)GlcNAc(b1-2)Man(a1-3)[GlcNAc(b1-2)Man(a1-6)]Man(b1-4)GlcNAc(b1-4)GlcNAc
# Outline: as §1
# [7] = target: Neu5Ac(a2-6)Gal(b1-4)GlcNAc(b1-2)Man(a1-3)[GlcNAc(b1-4)][Neu5Ac(a2-6)Gal(b1-4)GlcNAc(b1-2)Man(a1-6)]Man(b1-4)GlcNAc(b1-4)GlcNAc
# Outline: as §1
# [8] = target: Neu5Ac(a2-6)Gal(b1-4)GlcNAc(b1-2)Man(a1-3)[Man(a1-6)]Man(b1-4)GlcNAc(b1-4)GlcNAc
# Outline: as §1
# [9] = target: Neu5Ac(a2-6)Gal(b1-4)GlcNAc(b1-2)Man(a1-3)[Neu5Ac(a2-3)Gal(b1-4)GlcNAc(b1-2)Man(a1-6)]Man(b1-4)GlcNAc(b1-4)GlcNAc
# Outline: as §1
# [10] = target: Neu5Ac(a2-6)Gal(b1-4)GlcNAc(b1-2)Man(a1-3)[Neu5Ac(a2-6)Gal(b1-4)GlcNAc(b1-2)Man(a1-6)]Man(b1-4)GlcNAc(b1-4)GlcNAc
# Outline: as §1
# [11] = target: Neu5Ac(a2-6)Gal(b1-4)GlcNAc(b1-2)Man(a1-3)[Neu5Ac(a2-6)Gal(b1-4)GlcNAc(b1-2)Man(a1-6)]Man(b1-4)GlcNAc(b1-4)[Fuc(a1-6)]GlcNAc
# Outline: as §1
# [12] = target: Neu5Ac(a2-6)Gal(b1-4)GlcNAc(b1-2)Man(a1-6)Man(b1-4)GlcNAc(b1-4)GlcNAc
# Outline: as §1
# [13] = target: Neu5Ac(a2-6)Gal(b1-4)GlcNAc(b1-2)Man(a1-6)[Gal(b1-4)GlcNAc(b1-2)Man(a1-3)]Man(b1-4)GlcNAc(b1-4)GlcNAc
# Outline: as §1
# [14] = target: Neu5Ac(a2-6)Gal(b1-4)GlcNAc(b1-2)Man(a1-6)[GlcNAc(b1-2)Man(a1-3)]Man(b1-4)GlcNAc(b1-4)GlcNAc
# Outline: as §1
# [15] = target: Neu5Ac(a2-6)Gal(b1-4)GlcNAc(b1-2)Man(a1-6)[Man(a1-3)]Man(b1-4)GlcNAc(b1-4)GlcNAc
# Outline: as §1
# [16] = target: Neu5Ac(a2-6)Gal(b1-4)GlcNAc(b1-2)[Neu5Ac(a2-6)Gal(b1-4)GlcNAc(b1-4)]Man(a1-3)[GlcNAc(b1-4)][Neu5Ac(a2-6)Gal(b1-4)GlcNAc(b1-2)[Neu5Ac(a2-6)Gal(b1-4)GlcNAc(b1-6)]Man(a1-6)]Man(b1-4)GlcNAc(b1-4)GlcNAc
# Outline: as §1
# [17] = target: Neu5Ac(a2-6)Gal(b1-4)GlcNAc(b1-2)[Neu5Ac(a2-6)Gal(b1-4)GlcNAc(b1-4)]Man(a1-3)[GlcNAc(b1-4)][Neu5Ac(a2-6)Gal(b1-4)GlcNAc(b1-4)Man(a1-6)]Man(b1-4)GlcNAc(b1-4)GlcNAc
# Outline: as §1
# [18] = target: Neu5Ac(a2-6)Gal(b1-4)GlcNAc(b1-2)[Neu5Ac(a2-6)Gal(b1-4)GlcNAc(b1-6)]Man(a1-6)[Neu5Ac(a2-6)Gal(b1-4)GlcNAc(b1-2)Man(a1-3)][GlcNAc(b1-4)]Man(b1-4)GlcNAc(b1-4)GlcNAc
# Outline: as §1
# [19] = target: Neu5Ac(a2-6)Gal(b1-4)GlcNAc(b1-3)Gal(b1-3)GlcNAc
# Outline: as §1
# [20] = target: Neu5Ac(a2-6)Gal(b1-4)GlcNAc(b1-3)Gal(b1-4)GlcNAc
# Outline: as §1
# [21] = target: Neu5Ac(a2-6)Gal(b1-4)GlcNAc(b1-3)Gal(b1-4)GlcNAc(b1-2)Man(a1-3)[Neu5Ac(a2-6)Gal(b1-4)GlcNAc(b1-3)Gal(b1-4)GlcNAc(b1-2)Man(a1-6)]GalNAc
# Outline: as §1
# [22] = target: Neu5Ac(a2-6)Gal(b1-4)GlcNAc(b1-3)Gal(b1-4)GlcNAc(b1-3)Gal(b1-4)GlcNAc
# Outline: as §1
# [23] = target: Neu5Ac(a2-6)Gal(b1-4)GlcNAc(b1-3)Gal(b1-4)GlcNAc(b1-3)Gal(b1-4)GlcNAc(b1-2)Man(a1-3)[Neu5Ac(a2-6)Gal(b1-4)GlcNAc(b1-3)Gal(b1-4)GlcNAc(b1-3)Gal(b1-4)GlcNAc(b1-2)Man(a1-6)]GalNAc
# Outline: as §1
# [24] = target: Neu5Ac(a2-6)Gal(b1-4)GlcNAc(b1-3)Gal(b1-4)GlcNAc(b1-3)GalNAc
# Outline: as §1
# [25] = target: Neu5Ac(a2-6)Gal(b1-4)GlcNAc(b1-3)Gal(b1-4)GlcNAc(b1-3)[Neu5Ac(a2-6)Gal(b1-4)GlcNAc(b1-3)Gal(b1-4)GlcNAc(b1-6)]GalNAc
# Outline: as §1
# [26] = target: Neu5Ac(a2-6)Gal(b1-4)GlcNAc(b1-3)Gal(b1-4)GlcNAc(b1-6)[Gal(b1-3)]GalNAc
# Outline: as §1
# [27] = target: Neu5Ac(a2-6)Gal(b1-4)GlcNAc(b1-3)Gal(b1-4)[Fuc(a1-3)]GlcNAc(b1-3)Gal(b1-4)[Fuc(a1-3)]GlcNAc
# Outline: as §1
# [28] = target: Neu5Ac(a2-6)Gal(b1-4)GlcNAc(b1-3)GalNAc
# Outline: as §1
# [29] = target: Neu5Ac(a2-6)Gal(b1-4)GlcNAc(b1-3)[Neu5Ac(a2-6)Gal(b1-4)GlcNAc(b1-6)]GalNAc
# Outline: as §1
# [30] = target: Neu5Ac(a2-6)Gal(b1-4)GlcNAc(b1-6)GalNAc
# Outline: as §1
# [31] = target: Neu5Ac(a2-6)Gal(b1-4)GlcNAc(b1-6)[Gal(b1-3)GlcNAc(b1-3)]Gal(b1-4)Glc
# Outline: as §1
# [32] = target: Neu5Ac(a2-6)Gal(b1-4)GlcNAc(b1-6)[Gal(b1-3)]GalNAc
# Outline: as §1
# [33] = target: Neu5Ac(a2-6)Gal(b1-4)GlcNAc6S
# Outline: as §1
# Neu5Ac(a2-6)GalNAc = target: Neu5Ac(a2-6)GalNAc
# Outline: as §1
# [34] = target: Neu5Ac(a2-6)GalNAc(b1-4)GlcNAc
# Outline: as §1
# [35] = target: Neu5Ac(a2-6)GalNAc(b1-4)GlcNAc6S
# Outline: as §1
# [36] = target: Neu5Ac(a2-6)GlcNAc(b1-4)GlcNAc
# Outline: as §1
binder,measurement,setting,value
Clec18C (Homo sapiens) (protein) MLHPETSPGRGHLLAVLLALLGTAWAEVWPPQLQEQAPMAGALNRKESFLLLSLHNRLRSWVQPPAADMRRLDWSDSLAQLAQARAALCGTPTPSLASGLWRTLQVGWNMQLLPAGLVSFVEVVSLWFAEGQRYSHAAGECARNATCTHYTQLVWATSSQLGCGRHLCSAGQAAIEAFVCAYSPRGNWEVNGKTIVPYKKGAWCSLCTASVSGCFKAWDHAGGLCEVPRNPCRMSCQNHGRLNISTCHCHCPPGYTGRYCQVRCSLQCVHGRLREEECSCVCDIGYGGAQCATKVHFPFHTCDLRIDGDCFMVSSEADTYYRARMKCQRKGGVLAQIKSQKVQDILAFYLGRLETTNEVIDSDFETRNFWIGLTYKTAKDSFRWATGEHQAFTSFAFGQPDNHGFGNCVELQASAAFNWNNQRCKTRNRYICQFAQEHISRWGPGS,glycan array binding signal (z-score),[1],-0.234
same,glycan array binding signal (z-score),Neu5Ac(a2-6)Gal(b1-4)Glc,-0.354
same,glycan array binding signal (z-score),[2],-0.406
same,glycan array binding signal (z-score),[3],-0.59
same,glycan array binding signal (z-score),[4],0.624
same,glycan array binding signal (z-score),[5],0.359
same,glycan array binding signal (z-score),[6],-0.556
same,glycan array binding signal (z-score),[7],-0.428
same,glycan array binding signal (z-score),[8],-0.24
same,glycan array binding signal (z-score),[9],-0.395
same,glycan array binding signal (z-score),[10],0.183
same,glycan array binding signal (z-score),[11],-0.029
same,glycan array binding signal (z-score),[12],-0.555
same,glycan array binding signal (z-score),[13],-0.47
same,glycan array binding signal (z-score),[14],-0.097
same,glycan array binding signal (z-score),[15],-0.523
same,glycan array binding signal (z-score),[16],0.16
same,glycan array binding signal (z-score),[17],0.259
same,glycan array binding signal (z-score),[18],-0.351
same,glycan array binding signal (z-score),[19],0.131
same,glycan array binding signal (z-score),[20],3.16
same,glycan array binding signal (z-score),[21],-0.357
same,glycan array binding signal (z-score),[22],-0.228
same,glycan array binding signal (z-score),[23],-0.119
same,glycan array binding signal (z-score),[24],-0.565
same,glycan array binding signal (z-score),[25],-0.383
same,glycan array binding signal (z-score),[26],-0.392
same,glycan array binding signal (z-score),[27],0.641
same,glycan array binding signal (z-score),[28],-0.245
same,glycan array binding signal (z-score),[29],-0.474
same,glycan array binding signal (z-score),[30],-0.506
same,glycan array binding signal (z-score),[31],-0.464
same,glycan array binding signal (z-score),[32],-0.511
same,glycan array binding signal (z-score),[33],-0.289
same,glycan array binding signal (z-score),Neu5Ac(a2-6)GalNAc,5.42
same,glycan array binding signal (z-score),[34],-0.567
same,glycan array binding signal (z-score),[35],0.738
same,glycan array binding signal (z-score),[36],-0.459
